Whole data set: some 33,000 sequences, median “E-score (-0.5 to 0.5)” near -0.012, cut for the highest 2% near 0.29. Some of the results follow.
Target: T1, Ybr033w (UniProt P38073)
T1 sequence: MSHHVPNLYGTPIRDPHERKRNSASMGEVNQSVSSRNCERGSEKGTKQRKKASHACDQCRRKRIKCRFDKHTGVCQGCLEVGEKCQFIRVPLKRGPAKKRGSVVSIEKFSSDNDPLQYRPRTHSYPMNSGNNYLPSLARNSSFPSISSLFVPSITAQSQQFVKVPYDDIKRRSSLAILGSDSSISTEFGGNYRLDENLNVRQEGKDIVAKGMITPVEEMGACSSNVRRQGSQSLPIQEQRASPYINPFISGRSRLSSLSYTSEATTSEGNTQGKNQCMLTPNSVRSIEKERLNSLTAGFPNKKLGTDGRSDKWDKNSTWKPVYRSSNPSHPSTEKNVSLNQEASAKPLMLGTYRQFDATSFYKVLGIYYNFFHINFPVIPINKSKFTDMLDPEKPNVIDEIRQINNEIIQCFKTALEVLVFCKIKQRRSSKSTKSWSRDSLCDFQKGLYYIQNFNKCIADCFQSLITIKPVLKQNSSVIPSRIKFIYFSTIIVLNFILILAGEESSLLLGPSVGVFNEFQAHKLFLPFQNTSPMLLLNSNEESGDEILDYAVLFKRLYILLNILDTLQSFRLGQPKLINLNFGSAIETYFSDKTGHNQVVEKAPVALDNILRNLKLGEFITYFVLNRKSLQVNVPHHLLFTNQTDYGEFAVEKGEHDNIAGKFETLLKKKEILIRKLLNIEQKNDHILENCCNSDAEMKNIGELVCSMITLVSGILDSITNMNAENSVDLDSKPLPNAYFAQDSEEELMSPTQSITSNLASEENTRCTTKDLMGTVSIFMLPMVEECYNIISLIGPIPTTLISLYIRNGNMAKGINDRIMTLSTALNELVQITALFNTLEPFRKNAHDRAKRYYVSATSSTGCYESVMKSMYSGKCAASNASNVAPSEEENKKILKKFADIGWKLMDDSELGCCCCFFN
Assay: PBM E-score (8-mer binding enrichment) (E-score (-0.5 to 0.5)); higher = stronger / more preferred TF binding; most listed sequences are background and not binding sites
Details: protein concentration: 200 nM; construct: GST-full length
Summary of the method: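 Each ungapped eight-base word and its reverse complement, pooled, received an E-score from the Universal PBM Analysis Suite. Underlying scans, normalised with masliner, recorded fluorescent anti-GST bound to GST-tagged yeast transcription factors. These were applied at about 100-200 nM to universal all-10-mer Agilent arrays double-stranded by primer extension.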

Sequence	PBM E-score
GCGCTCAA	-0.23
CTCGACTC	0.0826
ACCTACAA	0.0597
GAAATTCC	0.263
ATGGTAAG	-0.0494
TATCAGGA	0.112
ACAGGTAC	-0.0953
AAATAGTT	0.227
AACGCGCC	-0.00177
CAAACATC	0.123
CCCATTGC	-0.0693
GCGGACGC	-0.0534
AGGGTTAC	-0.139
CGGCCCCG	-0.384
AAATCAAT	0.23
GCAGGCAA	0.00984
CTATCTAA	0.0148
CGATGCAC	-0.166
CAACCGCG	0.153
AACAAGAT	0.221
AGTCCAGG	-0.111
CACTCTAG	-0.0846
CCCGGAGG	-0.202
AGGGTTTC	-0.229
GCTGTCAC	-0.0684

Sequence	PBM E-score
CGGTTCCA	-0.06
GATCACAC	-0.135
CTGAAAAA	0.0159
AGAACGGG	-0.173
ACACCGCC	-0.104
ACAACGTA	0.0205
CCTTATTC	-0.146
ACCACATG	0.0622
CCGGAACA	0.447
GCTCTGAC	-0.193
GGCCCAAC	-0.219
TAAATGAA	0.143
ACCCCGTC	-0.298
ACTTAGGC	-0.218
CTGCCAAC	-0.136
AGTTAAAC	0.11
AACCATGC	0.0112
AAAGTCAA	0.199
ACGGCCAG	-0.14
CCGGTTAC	-0.143
CCGAGCCG	0.00927
ATCAACCA	0.148
GGTCCTAC	-0.226
ATGATCAA	0.166
ATTGCCCG	-0.116

Sequence	PBM E-score
ATTCTTGA	0.17
TATTGAAA	0.264
GCTGATCA	0.0605
CATGGCAG	-0.0545
AGCGCTGA	-0.0432
CCGTTCTA	0.135
CCGCAACA	-0.0261
CGCATCAG	-0.0368
ATATCACC	0.272
ACGGGTCG	-0.0641
TGAAGGAA	0.211
CGCGCCAA	0.0577
ATTTAATG	0.244
AGAGCCGC	-0.162
ACGAAGCT	0.142
ATGTAGCC	-0.24
ACATTGGA	-0.0326
AAGCAACG	0.0559
ATGACTGA	0.0565
AACCTAGA	0.00973
GAACCGCA	0.0878
AATGCTAC	0.217
CTAGTGGA	-0.011
GTCTCTTA	0.121
CGCATTCA	0.158

Sequence	PBM E-score
GCGCCCAC	-0.166
AGAGGGCA	-0.242
ACGAAACT	0.0994
CGCAGCGC	-0.211
ATATACGA	-0.0313
ATTCGTCC	0.182
AAAGTGAG	0.0784
ACATGTCT	-0.0446
ATAGCGAC	-0.115
AAGTTGGC	-0.0193
ATCAGGGA	-0.155
GCTGTTCC	-0.207
ATGCTATG	0.159
CCGGAGAA	0.271
GTCCGTAA	-0.036
ATCTAGTA	0.246
GCCATCCA	-0.168
CGTGTGAC	-0.0594
GCACTCGA	-0.0311
CATAAGCG	-0.0755
ACCAGTTC	-0.139
ACTTATTA	0.176
CGAATAGA	-0.0851
CCTTGGCG	-0.278
GAGCTTAA	0.108

Sequence	PBM E-score
AGGAGTAA	0.104
CCGGTACG	-0.229
CTTCCACC	-0.158
GATTCTTA	0.248
AATGTTGA	-0.00763
TGATAGAA	0.00598
AAAGGCTT	-0.00332
AAGTGCTG	0.0349
AGGTCTAC	0.0604
CGCTATCC	-0.0504
GTATATTA	0.257
ACTCATTC	0.245
TCTCCAAA	0.053
GATTCGTA	0.127
CTGTCCTA	-0.0252
AACAACCC	0.0694
ATTCGTGC	0.186
CATCGAAG	0.0388
AATTCTGG	0.111
CGATTGCA	0.109
ACTCTAAG	-0.157
CCCCTTAG	-0.364
ACTAGTCG	-0.166
ATCCCGTA	0.19
AGGAGCTA	-0.178

Sequence	PBM E-score
AGTCCAGA	-0.0236
CGGAGATA	0.123
AAGGGATC	0.0741
CAGCACCG	-0.319
ACAAATAC	0.234
CGTCTCCA	0.0883
ATCGGGAC	-0.169
TAGGGTGA	0.113
TCCTCTAA	0.0386
TAACCCGA	-0.0421
TACTACGA	0.212
CCAGACAA	-0.207
CTACCCTA	-0.106
CCGAGTAA	0.0976
CTGAAGAC	-0.157
GACTGCAC	-0.221
ACGACTTA	-0.0969
GGTCACAC	-0.191
ACGGCCTC	-0.177
ACTTGCTG	0.0666
GGCATGCA	-0.176
CTCATTAC	0.169
TCCGCCAA	0.00403
GTTTACAA	0.243
ATGGACCC	-0.193

Sequence	PBM E-score
ATTATACG	0.242
AACCCTAC	-0.159
GGCTCGTA	-0.135
CCCACCCC	-0.0296
AGCCTCTA	-0.114
CAGAGTGC	-0.126
AGATATTC	0.267
AATAAACG	0.163
ACATCTTG	0.00925
AGGAGCAC	-0.115
AGGCCAAG	-0.273
CATGTGTA	0.0292
CGAATGCA	-0.00613
AACAGGGA	0.191
CCGCGTCG	-0.0474
AAGAGGGG	-0.226
GCTTTAAA	-0.00436
GATAATAC	0.171
ACGCAGGA	-0.0118
AATGTAAG	0.288
ATACATAT	0.261
ACCCAATA	-0.0228
ATAACATG	0.184
CAACACAA	0.0806
AGCGCTGC	-0.219

Sequence	PBM E-score
AATGGGCT	-0.12
TGGGGTAA	0.0198
ACGCCCTG	-0.16
CATGCGCA	0.0557
GCGCGGCC	-0.0352
AACCGGAA	0.157
CCGACGCA	-0.226
ACGAAATC	0.149
AATTCAAT	0.173
ATCAGCAC	0.109
CAATCGCC	0.00795
AGCGATCG	-0.00462
GAACATGC	-0.076
AGTCGAAC	0.0638
CGCAAATA	0.208
CCCTCACC	-0.265
GATTTCAC	0.0763
GGGCGTCA	-0.075
GCCGCCAA	-0.283
GCATCCAA	-0.0905
CGACTACC	-0.107
ATGCGACC	-0.00341
ATGGTTAA	0.0444
CTTGTTAC	0.0366
AAGGCCTT	-0.326

Sequence	PBM E-score
CCGTCGCA	-0.00392
CAATACGG	0.023
AGCAAGTG	0.0477
CATTCGGG	-0.151
ATTGGAGG	-0.0464
CATGAAGG	0.11
AATTTATA	0.257
CCGTCTCA	0.11
GCGCGTCA	0.0339
ACTAGCTC	0.012
GAATAAAC	0.142
ATGCCAAT	-0.0217
AGCGTCCC	-0.172
ATCACCTC	-0.0556
GTAGGGGA	-0.183
ACGCGACT	-0.174
ACGAGGAA	0.0671
GCGTGGTA	-0.114
AAGCAGAG	0.0728
ACTCCTGC	-0.0369
GCACTTTA	0.186
ACGCGACA	0.0211
GCAGACCA	-0.11
ATCTCGGG	0.0364
CATCTTAG	-0.0257

Sequence	PBM E-score
GTTTACCA	0.0505
ATCGATAG	0.0428
CGGCTCAC	-0.114
AATGGAAA	0.0971
CGCGAGCC	0.0104
CCGGGGAA	-0.146
GCAGAGAA	-0.00583
GCCGGTCC	-0.344
GATTATAA	0.172
ACTGGTCA	0.11
ATTGAGAG	0.115
AGCGGTAC	0.059
AAAGGATA	0.251
AAGGGCAT	-0.103
GTCTCAAC	-0.0751
AATCACAA	0.135
AGTCCGAT	0.0266
CAGTGCGA	-0.149
CCGAAGCC	-0.251
AGCTGATG	0.123
CCGGACTC	0.0669
GCCCAACA	-0.21
AATTAGTC	0.212
AATCCCCT	-0.172
CAGTACAG	-0.0166

Sequence	PBM E-score
CAGGCTTC	0.08
AGGGTACG	-0.17
ATCCTAGA	-0.0202
ACAGTAGA	0.194
CAGTAGGG	-0.0739
AGTGTGAC	0.0281
ACGTCCCC	-0.283
ATAGTCGG	-0.0396
GGCGCGGA	-0.185
TTCTCCAA	0.11
CGCTAACG	0.0274
GCAAGGCC	-0.0987
CCTAAACA	-0.0857
ATATCCAA	0.176
TAGTCTAA	-0.101
AATTGTTC	0.339
CCGAGCGC	-0.0527
CGTGGGTA	-0.248
CTTGTCAC	-0.0493
AGCATGAC	-0.0225
AGATGTGG	-0.00553
CTGAGTCC	-0.126
GCAAGTAC	-0.0854
AATCGATC	0.127
AAGACAAG	0.108

Sequence	PBM E-score
GAAAGGGC	-0.258
AACCCGCC	-0.0266
GGGAGACC	-0.426
GTGATGTA	0.217
GTACAGAA	0.0897
CTCACGCC	-0.142
CACACTGA	-0.19
GTCGCCCA	-0.229
ATATAGGG	-0.00433
TGCCTTAA	0.0475
CTACTACC	0.15
ACACGTAA	0.0814
GGTTAAAA	0.0924
TACCCCCA	-0.229
AGCCTTAC	-0.28
CGTGCTGA	0.0996
AAACGACG	0.093
GCCGGGAA	-0.0582
AACCTAGG	-0.00742
CCGAGGGC	-0.1
GATCCTGA	0.00833
CAGCATCC	-9e-05
CGGGGCAG	-0.147
CCGACGAG	-0.0826
CTTGAATC	0.105

Sequence	PBM E-score
CTGGAGGA	-0.0112
CACCCAAG	-0.135
GAGAACTA	0.101
TCATAGCA	0.156
CAAGATCC	-0.0366
GGAGGGGA	-0.121
GCCAACAA	-0.0138
CCAGCAAG	-0.186
TGCGGTAA	0.0291
CACGGCCA	-0.15
CCTATGCC	-0.18
GAGGTAGC	-0.172
CGGTCACA	-0.129
ACAAAACG	0.00516
AATAGTGT	0.289
ACCGGTCC	-0.319
CCTCTGTA	-0.0969
GACTAACA	0.0397
AAGTCGTG	-0.0301
AGCAGACC	-0.0803
GAAGCCCC	-0.353
GAAATACC	0.189
AGGAGAGG	-0.26
AGGCAGGG	-0.0987
ATAGGAAT	0.135

Sequence	PBM E-score
CAGCGAGC	-0.0742
CAGCATGG	-0.0923
ATATGACC	-0.104
CTTCATGA	0.132
ACGCACCC	-0.267
CTACGTTC	-0.0534
ATCAGAAT	0.176
CTCTGTAC	-0.0027
GAACGCTC	-0.133
AGCCCGCC	-0.265
AGCAATCA	0.129
ACACTAAC	0.164
CACACCCA	0.113
ACTAGTGC	-0.0442
ATTTTTGG	0.0437
CGATAGAC	-0.138
GTCTCCAA	0.0412
CCTCCTAC	-0.107
GTACTAAA	0.253

From the supplement of paper PMC3334620
